Laboratory results published in PMC4336329 (PLoS ONE, 2015).
The whole screen tested about 310,000 compounds, of which about 2,200 (0.71%) showed an effect of 50% or more. Effects have a minus sign here. The list shows a part of the results.

Molecular target: human ether-à-go-go-related gene (hERG) potassium channel (human, UniProt Q12809)
Assay: primary screen, population patch clamp on CHO cells stably expressing hERG

Chain of human ether-à-go-go-related gene (hERG) potassium channel (Q12809 whole entry, looked up): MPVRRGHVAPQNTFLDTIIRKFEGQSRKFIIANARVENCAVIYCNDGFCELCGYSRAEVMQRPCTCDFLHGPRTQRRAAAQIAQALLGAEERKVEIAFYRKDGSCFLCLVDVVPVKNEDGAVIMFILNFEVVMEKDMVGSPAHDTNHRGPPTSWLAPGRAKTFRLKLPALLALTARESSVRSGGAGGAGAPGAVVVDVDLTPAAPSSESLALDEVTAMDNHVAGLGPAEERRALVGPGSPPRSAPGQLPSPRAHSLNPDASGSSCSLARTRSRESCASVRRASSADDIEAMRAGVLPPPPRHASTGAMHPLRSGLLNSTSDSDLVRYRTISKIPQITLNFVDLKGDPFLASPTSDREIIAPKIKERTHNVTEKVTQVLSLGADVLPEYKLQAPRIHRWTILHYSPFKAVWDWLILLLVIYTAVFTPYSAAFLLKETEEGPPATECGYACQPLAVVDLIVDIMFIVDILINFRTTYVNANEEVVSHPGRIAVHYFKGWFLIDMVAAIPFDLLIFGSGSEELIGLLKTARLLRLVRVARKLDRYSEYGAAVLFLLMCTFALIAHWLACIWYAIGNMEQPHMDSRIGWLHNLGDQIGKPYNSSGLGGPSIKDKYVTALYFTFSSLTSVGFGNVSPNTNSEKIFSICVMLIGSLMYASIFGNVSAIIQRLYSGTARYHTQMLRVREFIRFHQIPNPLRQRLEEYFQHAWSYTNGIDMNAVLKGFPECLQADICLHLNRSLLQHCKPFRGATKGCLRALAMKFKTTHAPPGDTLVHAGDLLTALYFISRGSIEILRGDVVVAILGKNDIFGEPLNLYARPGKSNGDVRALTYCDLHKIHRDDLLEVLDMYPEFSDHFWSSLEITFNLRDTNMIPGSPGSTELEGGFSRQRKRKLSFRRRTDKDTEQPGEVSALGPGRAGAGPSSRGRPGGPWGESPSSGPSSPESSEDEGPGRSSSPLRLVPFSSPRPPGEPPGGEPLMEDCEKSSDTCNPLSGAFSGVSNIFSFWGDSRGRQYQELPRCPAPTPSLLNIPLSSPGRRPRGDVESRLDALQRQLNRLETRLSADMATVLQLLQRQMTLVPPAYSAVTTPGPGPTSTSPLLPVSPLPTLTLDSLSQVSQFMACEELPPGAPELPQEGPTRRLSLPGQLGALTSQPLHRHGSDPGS

Compound | hERG current change (%, negative = inhibition) at 1uM [%]
CC(C)c1c(O)nc(SCCOc2ccc(Cl)cc2)[nH]c1=O | 8.93
O=C(O)CCSc1nc2ccccc2n1-c1ccccc1 | 13.9
Cc1ccc(-c2cc(-c3ccc(C)cc3)[n+](-c3ccccc3)c(-c3ccc(C)cc3)c2)cc1.[O-][Cl+3]([O-])([O-])[O-] | -77.3
Cc1cc(NC(=O)CSc2nc(-c3ccco3)cc(C(F)(F)F)n2)n(-c2ccccc2)n1 | 18.3
CCOc1ccccc1CNC(=O)c1ccc(Sc2ccc(Cl)cc2)c(NC(C)=O)c1 | 0.132
CC(=O)NS(=O)(=O)c1cccnc1Nc1cccc(Cl)c1 | 8.83
COC(=O)[C@H]1C[C@@H]1[C@H](NC(=O)c1ccccc1)c1ccccc1 | 5.41
CCOC(=O)Cc1cc(-c2ccc(F)cc2)nc2ccc3ccccc3c12 | 10.1
Cc1ccc(CNC(=O)CCS(=O)(=O)c2ccc(C)cc2)cc1 | -6.2
O=C(COC(=O)c1cccs1)NCC1CCCCC1 | 17.4
Cc1cc(C)nc(SCCC(=O)Nc2ccccc2)n1 | 0.0335
CCOC(=O)C1(CC2CCCCO2)CCN(C(=O)Nc2ccccc2CC)CC1 (centres unmarked) | -7.98
O=C(Cc1cccs1)Nc1ccc(S(=O)(=O)N2CCCC2)cc1 | 16
C=CC[C@]12C=C(OC)C(=O)C(OC)=C1O[C@@H](c1ccc3c(c1)OCO3)[C@H]2C | 14.8
O=C(CCC(=O)Nc1ccccc1Cl)N/N=C/c1ccccc1 | 7.19
CC1CC(=O)N(c2ccc(NCCc3ccccc3)c([N+](=O)[O-])c2)C1=O (centres unmarked) | -0.98
COc1ccc(C2C(C(C)=O)=C(C)N=c3s/c(=C\c4cc(C)n(C)c4C)c(=O)n32)c(OC)c1 (centres unmarked) | -13.5
CC(=O)N1CN2CN(C(C)=O)CC(C(=O)c3ccccc3)(C2)C1 | 11.5
CC1CN(C2=CC(=O)CCC2)CC(C)O1 (centres unmarked) | 15.3

Compound | hERG current change (%, negative = inhibition) at 1uM [%]
Cc1ccc(C(=O)NCC(=O)OCC(=O)c2ccc3c(c2)OCCO3)cc1C | 15.7
COc1cc(-c2cc(C(=O)Nc3c(Cl)cc(Cl)cc3Cl)c3ccccc3n2)cc(OC)c1OC | 0.191
COc1ccc(S(=O)(=O)n2nc(C)cc2C)cc1OC | 4.44
COc1ccc(CC2(C)OC(c3ccccc3)=NN2C(C)=O)cc1 (centres unmarked) | -6.7
CCOC(=O)C(NC(=O)CC)(Nc1sc2c(c1C(=O)OC)CCN(C)C2)C(F)(F)F (centres unmarked) | 3.48
O=C(Cn1cc(C(=O)C(F)(F)F)c2ccccc21)Nc1ccccc1F | 11
Cc1ccccc1OCC(=O)NCC(c1ccco1)N1CCCCC1 (centres unmarked) | -11.6
COc1ccc(CCNC(=O)c2nnn(CC(=O)Nc3ccc(C)cc3C)c2N)cc1OC | 10.8
Cc1csc(SCC(=O)NC(C)C2CC3CCC2C3)n1 (centres unmarked) | 19.9
Cc1nn(C(=O)CCCC(=O)NCc2ccccc2)c2ccccc12 | 11.8
COCc1c(C(=O)OC/C(O)=C(\C#N)c2nc3ccccc3[nH]2)oc2ccccc12 | 18
Cc1cc(C(=O)CSc2nnc(-c3cccc(F)c3)n2N)c(C)n1Cc1ccc2c(c1)OCO2 | 12
Cc1ccc(CNC(=O)C2CC3Cn4c(nc5cc(C)c(C)cc54)C3N2C)o1 (centres unmarked) | -0.478
O=S1(=O)N=C(Nc2nc3c(s2)CCCC3)c2ccccc21 | 3.74
C#CC1(NC(=O)N(C)C)CCCCC1 | 3.48
Cc1cc(C)cc(N2C(=O)CC(Sc3ccccc3C(=O)O)C2=O)c1 (centres unmarked) | 11.8
Brc1cc(-c2ccccc2)nc(-c2ccccc2)n1 | 5.97
CN(CCc1ccccn1)C(=O)CCC1CCCN(C(=O)c2cccc(N(C)C)c2)C1 (centres unmarked) | 18.4
CCOC(=O)c1cnc2ccc(C)cc2c1OCc1cc(F)cc(F)c1 | -0.796

Compound | hERG current change (%, negative = inhibition) at 1uM [%]
CNc1nc(-c2ccc3c(c2)CCN3S(=O)(=O)c2ccccc2)c(C)s1 | 7.96
COc1ccc(CN2C(=O)NC(=O)/C(=C\c3ccc(OC)c(OC)c3OC)C2=O)cc1 | 14
CCOC(=O)C1=C(c2ccccc2)Nc2ncnn2C1c1cc(OC)cc(OC)c1OC (centres unmarked) | 2.97
O=Nc1[nH]c(=O)c(/C=C(\O)c2ccccc2)nc1NO | 10.2
COc1ccc(C2=NN3C(=O)c4c(ccc(OC)c4OC)C3C2)cc1 (centres unmarked) | -1.75
CC(=O)C1=C(O)C(=O)N(Cc2ccccc2)C1c1ccc([N+](=O)[O-])cc1 (centres unmarked) | 13.2
CCOC(=O)C1=C(C)N(C)C(=O)NC1c1cccc(O)c1 (centres unmarked) | 9.71
CC1CN(c2ccc([N+](=O)[O-])nc2)CC(C)O1 (centres unmarked) | 8.84
COc1ccc(OCCCCn2c(CO)nc3ccccc32)cc1 | -0.942
CCOC(=O)c1ccccc1NC(=O)c1cccc([N+](=O)[O-])c1 | 11.3
O=C(O)CCCCCNC(=O)/C(=C\c1ccco1)NC(=O)c1ccco1 | 9.28
C[C@@H]1CC[C@]2(O[C@H](CCO)C[C@H](O)[C@H]2O)O1 | 5.98
CN(C(=O)CSc1nnc(N)s1)c1c(N)n(Cc2ccccc2)c(=O)[nH]c1=O | 12.1
Cc1nc2ccccn2c1C(=O)N/N=C/c1ccc(F)cc1 | 8.5
COc1cccc(/C=N/NC(=O)CC2C(=O)NN=C2C)c1O (centres unmarked) | -9.68
CN1CCN(S(=O)(=O)c2ccc(=O)[nH]c2)CC1 | 10.3
CC1(C)Cc2c(sc3c2c(=N)n(Cc2ccco2)c(=O)n3CC(=O)Nc2ccccc2)CO1 | 9.98
COc1ccc(CCNC(=O)CN2C(=O)COc3ccc(S(=O)(=O)N4CCCC4)cc32)cc1OC | 16.9
